Laboratory results as given in PubChem BioAssay AID1963576 (National Center for Advancing Translational Sciences (NCATS), 2024).
Out of some 46,000 compounds screened, about 60 (0.1%) were called active. Roughly 3% stayed inconclusive and do not appear here. Calls come from the whole dose curve; as a rule, active = well fitted inhibition curve with a large enough effect; inconclusive = small, poorly fitted or top-dose-only effect; inactive = no such curve, though single readings can be large or run the other way. The list shows a part of the results.

Assay: Primary qHTS assay for Inhibitors of ovarian cancer metastasis using an organotypic tumor microenvironment (TME) model.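 For activity change, negative = inhibition: plate controls were DMSO wells for no effect and tomatine positive control wells for full effect.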 Note: nearly all actives have a fitted effect of over 65% in size.
Settings: SKOV3ip1-GFP adhesion/invasion on 3D omental model, fluorescence; series mostly up to 45.8 µM; activity change, negative = inhibition: at the top concentration
Outline: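 Primary human omental fibroblast/mesothelial 3D culture pre-formed 48 h. SKOV3ip1-GFP cells added with compounds (0.36-46 umol/L), incubated 2 h RT/16 h 37 C, fixed; GFP cells quantified at 488/509 nm.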

Activity change, negative = inhibition, inactive:
CCOc1ccccc1NC(=O)CN1C(=O)CC(c2ccc(C)c(C)c2)=Nc2ccccc21 -4.14%
CC(C)Oc1ccc(CNC(=O)C(C)n2ccc3cc(S(=O)(=O)N4CCCCCC4)ccc32)cc1 (stereo not given) -3.18%
CCc1ccc(CNC(=O)CN2C(=O)C3CCCCN3c3ccc(C(=O)N4CCCC4)cc32)cc1 (stereo not given) -10.2%
CC1CCN(S(=O)(=O)c2ccc3c(c2)N(C)C(=O)CC(=O)N3C)CC1 0.504%
CCCNC(=O)CN1C(=O)COc2ccc(S(=O)(=O)N3CCCCCC3)cc21 8%
Cc1ccc(-c2nnc(SCc3ccccc3)o2)cc1 -9.91%
COc1cccc(NC(=O)C(C)n2c(=O)cc(C(F)(F)F)c3c(C)nn(C)c32)c1 (stereo not given) 7.89%
CCN(CC)C(=O)Cn1c(SCC(=O)Nc2ccc(F)cc2)nc2ccccc21 -14.6%
COc1ccc(OCc2nc3ccccc3n2Cc2ccc(C(C)(C)C)cc2)cc1 5.65%
CCOc1ccccc1NC(=O)Cn1c(=O)nc(-c2ccccc2F)c2cc(Cl)ccc21 -1.18%
CCc1ccccc1NC(=O)Cn1c(=O)n(C(C)C)c(=O)c2oc3ccccc3c21 -2.12%
CCOc1ccccc1C(=O)NCc1ccc2c(c1)CCN2C(=O)c1ccc(F)cc1 -1.62%
Cc1ccc(N(Cc2cccs2)C(=O)c2ccc(OC(C)C)cc2)cc1 -1.62%
COc1cccc(OCCSc2nc3ccccc3n2CC(=O)N2CCOCC2)c1 5.1%
COc1ccc2c(CNC3CCC(C)CC3)c(C(=O)O)n(Cc3ccc(F)cc3)c2c1 (stereo not given) -2.91%
COCCNC(=O)c1ccc(Cn2c(SCC(N)=O)nc3ccccc3c2=O)cc1 -6.57%
CCOC(=O)c1cnc2c(ccc3ccccc32)c1Nc1ccccc1O -0.239%
COc1cc2nc(NCCc3cccc(C)c3)n3nc(-c4ccccc4)nc3c2cc1OC -0.75%
COc1ccc(C2CC(=O)Nc3c2c(C)nn3-c2nncc(-c3ccccc3)n2)c(OC)c1OC (stereo not given) 2.55%
CCN(C(=O)c1c(C)oc2ncnc(N3CCCCC3)c12)c1cc(C)ccc1C -1.09%
Cc1ccc(C(=O)NCCc2csc(-c3cccc(F)c3)n2)cc1C -4.93%
CCOC(=O)c1ccccc1NC(=O)CSc1ccc(-c2sc(C)nc2C)nn1 -6.58%
COc1ccc(-c2noc(CN(C(=O)c3ccc(C)cc3C)C(C)C)n2)cc1 38.8%
Cc1cc(CS(=O)(=O)c2ccccc2)cc(OCc2ccc(CN3CCC[C@H]3CO)cc2)c1 28.6%
Cc1ccc(C)c(NC(=O)c2cnc(N3CCCC3)nc2C)c1 -1.59%
O=C(OCc1cc(=O)n2nc(C3CC3)sc2n1)c1cccc(NC(=O)c2ccccc2Cl)c1 3.09%
COc1ccc(-c2cn3c(n2)sc2cc(C(=O)NCCc4ccccc4)ccc23)cc1 -4.7%
CCOc1ccccc1C(=O)Nc1cccc(-c2nc3ccccc3s2)c1 -9.99%
CCC(=O)N1CCCc2cc(S(=O)(=O)N3CCC(C(=O)NC4CCC(C)CC4)CC3)ccc21 (stereo not given) -15.6%
Cc1cc(C)cc(NC(=O)NCc2noc3ccccc23)c1 -0.962%
O=C(Cc1ccc(Cl)cc1)NC1CC(=O)N(c2ccc3c(c2)OCCO3)C1 (stereo not given) 28%
CCc1ccccc1N(CC)C(=O)c1cc2c(s1)-c1ccccc1SC2 12.1%
Cc1cccc(CNC(=O)C2CCN(c3nn4cc(-c5ccc(F)cc5)nc4s3)CC2)c1 -13%
COc1ccc(-n2ncc(C(=O)NCc3cccs3)c2C2CCN(C(=O)OC(C)(C)C)CC2)cc1 27.1%
CCC(Sc1nnc(-c2ccc(F)cc2)c(-c2ccc(F)cc2)n1)C(=O)NC1CCCC1 (stereo not given) -6.68%
O=S(=O)(c1ccccc1)n1nc(-c2ccco2)nc1NCc1ccccc1 1.72%
CCc1nnc(NC(=O)c2nc(SCc3cccc(C)c3)ncc2Cl)s1 0.82%
CC1CCN(C(=O)Cn2cc(SCC(=O)NCc3ccccc3)c3ccccc32)CC1 0.681%
CCOc1ccc(C(c2c(O)cc(C)n(Cc3ccco3)c2=O)N2CCN(C)CC2)cc1 (stereo not given) 5.64%
CCC(=O)N1CCc2cc(S(=O)(=O)CCC(=O)Nc3cc(Cl)ccc3OC)ccc21 1.84%
O=C(CSc1nc2c([nH]c3ccccc32)c(=O)n1-c1ccccc1F)Nc1cccc(Cl)c1 -8.75%
Cc1ccc(NC(=O)CSCc2cc(=O)c3ccccc3[nH]2)c(C)c1 8.72%
Cc1ccccc1CNCCCSc1nnnn1C -0.392%
COc1ccc(CNC(=O)C2CCN(S(=O)(=O)c3cccc(-c4noc(C)n4)c3)CC2)cc1 -3.96%
Cc1cccc(Cn2c(CN3CCC(C(=O)NC(C)C)CC3)cc3ccccc32)c1 -1.76%
COc1ccc(-c2cn3c(n2)sc2cc(C(=O)NCCCN4CCN(C)CC4)ccc23)cc1 -26.5%
COc1ccc(Cn2c(CO)cnc2SCc2ccccc2)cc1 0.119%
O=C(COCc1cc(-c2ccc(F)cc2)on1)Nc1cccc(C(F)(F)F)c1 2.04%
CCN(CCCNC(=O)Cn1ncc2c([nH]c3ccccc32)c1=O)c1cccc(C)c1 8.08%
CN(C)C(=O)c1ccc(S(=O)(=O)NCc2ccc(Cl)cc2)s1 -38.5%
CCc1ccccc1Nc1sc(C(=O)c2ccccc2)c(N)c1S(=O)(=O)c1ccccc1 2.05%
Cc1c(C(=O)Nc2c(F)cccc2F)sc2ncn(Cc3ccccc3F)c(=O)c12 -4.13%
CC(=O)N1CCc2c(sc3c2c(=O)n(-c2ccccc2C)c(=O)n3CC(=O)Nc2ccccc2)C1 0.681%
Cn1c(=O)sc2cc(NS(=O)(=O)c3ccc(C(C)(C)C)cc3)ccc21 2.73%
Cc1ccc2c(c1)N(C(=O)N1CCC(C(=O)Nc3cccc(F)c3)CC1)CCO2 3.05%
O=S(=O)(NCCc1csc2nc(-c3ccc(Cl)cc3)nn12)c1cccs1 -12.3%
O=C1CN(C(=O)c2ccc(S(=O)(=O)N3CCCC3)cc2)C(c2ccc(F)cc2)c2cc(Br)ccc2N1 (stereo not given) -11%
COC(=O)c1ccccc1NC(=O)NCc1ccc2c(c1)CCN2C(=O)c1ccccc1 4.97%
CCC1CN(S(=O)(=O)c2cc(-c3cc(C)no3)ccc2OC)c2cc(Cl)ccc2O1 (stereo not given) -14.8%
CN(Cc1ccccc1)c1nc2c(S(=O)(=O)c3cccc(Cl)c3)nnn2c2ccsc12 6.89%
COc1cc2nccc(Oc3ccc(NC(=O)C4(C(=O)Nc5ccc(F)cc5)CC4)cc3)c2cc1OC -5.82%
CCOC(=O)c1ccc2c(c1)N(Cc1cc(C)ccc1C)C(=O)c1ccccc1S2(=O)=O 2.07%
Cc1cc(C)cc(NC(=O)[C@H]2O[C@@H]3OC(C)(C)O[C@@H]3[C@H]3OC(C)(C)O[C@H]32)c1 -13.2%
Cc1ccc2c(c1)N(C(=O)CCC(=O)NCc1ccccc1F)CC(C)O2 (stereo not given) -10.5%
COc1ccccc1Nc1cc(C(=O)NCCCN(C)C2CCCCC2)c2ccccc2n1 -18.2%
COc1cc(Nc2nc3c(S(=O)(=O)c4ccccc4)nnn3c3ccc(Cl)cc23)cc(OC)c1 3.39%
CCc1ccccc1NC(=O)CN(c1cc(C(F)(F)F)ccc1Cl)S(=O)(=O)c1ccccc1 -16.3%
O=c1c2oc3ccccc3c2n(Cc2ccccc2Cl)c(=O)n1Cc1ccc2c(c1)OCO2 4.89%
Clc1cccc(Nc2ncnc3c2nc2n3CCCCC2)c1 5.6%
Cn1c(=O)oc2cc(S(=O)(=O)CCC(=O)NCc3ccc(Cl)cc3)ccc21 -28.4%
Cc1ccsc1CN(Cc1ccco1)c1cnc(S(C)(=O)=O)nc1C(=O)Nc1ccc(Cl)cc1 -1.84%
Cc1ccccc1C(=O)N1CCC(c2nc(-c3ccc(S(=O)(=O)N4CCCC4)cc3)no2)CC1 -4.67%
COc1ccc(Nc2nc3ccccc3n3c(N)nnc23)cc1 4.05%
COc1ccc(-c2cn3nc(SCC(=O)Nc4cccc(C)c4C)ccc3n2)cc1 -5.05%
Cc1ccc(C(c2sc3nc(-c4ccco4)nn3c2O)N2CCN(c3ccc(F)cc3)CC2)cc1 (stereo not given) 6.91%

outcome, inactive:
O=C(NCc1cccc(Br)c1)C1CCCCN1S(=O)(=O)c1ccc(F)cc1 (stereo not given)
COc1ccccc1NC(=O)c1cc2c(-c3ccccc3)nn(-c3ccccc3)c2s1
Cc1cc(=O)n2nc(N3CCC(C(=O)Nc4ccc(Br)c(C)c4)CC3)sc2n1
CCOC(=O)c1cccc(NC(=O)COc2ccc3c(C)cc(=O)oc3c2)c1
COc1ccccc1/C=C/c1nc(C#N)c(NCc2ccccc2)o1
CCOc1ccc(-c2cn3c(n2)sc2cc(C(=O)NC(C)C45CC6CC(CC(C6)C4)C5)ccc23)cc1 (stereo not given)
COc1cccc(N2CC(NC(=O)/C=C\c3ccccc3)CC2=O)c1 (stereo not given)
COc1ccc(C2C(C(=O)Nc3ccccc3)=C(C)Nc3nc(-c4ccc(Cl)cc4)nn32)cc1 (stereo not given)
CCOc1ccc(CNC(=O)c2cc3c(=O)oc4ccc(C)cc4c3s2)cc1
Cc1ccc(-n2c(=O)c3c(C)c(C(=O)N(C)C)sc3n(Cc3ccccc3C)c2=O)cc1C
CCCOc1ccc(C2C(=O)N(C3CCCCC3)CC(=O)N2C2CCCCC2)cc1OC (stereo not given)
COC(=O)c1scc(-c2ccc(C)cc2)c1S(=O)(=O)N1CCN(c2cccc(Cl)c2)CC1
CCc1ccccc1NC(=O)Cn1c(=O)n(-c2ccc(C)cc2)c(=O)c2cc(OC)c(OC)cc21
CCCCN(CC)C(=O)CSc1nc2c(sc3ccccc32)c(=O)n1CCc1ccccc1
Cc1ccc(S(=O)(=O)c2nc(-c3cccs3)oc2N2CCC(C)CC2)cc1
CCCCNC(=O)CSc1nc2cc3c(cc2c(=O)n1CCCC(=O)NCc1ccc(OC)cc1)OCO3
CC(C)CC(=O)NC1CC(=O)N(c2ccc3c(c2)OCCO3)C1 (stereo not given)
O=C(COc1ccc(Cl)cc1)OCc1cc(=O)n2nc(C3CCCCC3)sc2n1
Cc1cccc(C(=O)Nc2ccc(OCc3cc(=O)n4ccc(C)cc4n3)cc2)c1
CC1CCN(C(=O)CN2CC(C)Sc3ccccc32)CC1 (stereo not given)
